A lower IC50 marks a more sensitive line; fits outside the tested doses are given as limits. AUC, from the same fit, is the share of area under the viability curve across the 256-fold dose range; the more sensitive the line, the further below 1. For part of these data: The top dose, if marked as inferred, was calculated from the reported fits.
Assays:
Assay in all cases: Viability of human cancer cell lines after 72 h of drug (GDSC screen)
[1] = compound: Cc1cnc(CNC(=O)c2c(=O)c3ccc(N4CCCN(C)CC4)nc3n3c2sc2ccccc23)cn1 [CX-5461]; conditions: top dose 10.24 µM; top dose inferred
Description: (§1)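 Human cancer cell lines in 384-well plates, medium with 10% serum, drug for 72 h over a 256-fold dose range (nine 2-fold or five 4-fold steps up to the top dose). Adherent lines were fixed and stained with the nucleic acid dye Syto60, suspension lines read with resazurin; signal relative to control wells, capped at 0 and 100%. One two-parameter sigmoid per drug and line, fitted in a mixed model over all curves with the slope shared within a line.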

[2] = compound: Cc1cccc(Nc2nc(-c3ccncc3)cs2)c1 [STF-62247]; conditions: top dose 10.24 µM; top dose inferred
Description: as §1

[3] = compound: COCC(=O)NC/C=C/c1ccc2ncnc(Nc3ccc(Oc4ccc(C)nc4)c(C)c3)c2c1 [CP724714]; conditions: top dose 10.24 µM; top dose inferred
Description: as §1

[4] = compound: COC1=CC(c2cc3ccccc3[nH]2)=N/C1=C\c1[nH]c(C)cc1C [Obatoclax mesylate]; conditions: top dose 16 µM
Description: as §1

Cell Line | AUC [1] | IC50 [1] [µM] | AUC [2] | IC50 [2] [µM] | AUC [3] | IC50 [3] [µM] | AUC [4] | IC50 [4] [µM]
BFTC-905 (bladder, adherent) | 0.916 | > 10.2 | 0.99 | > 10.2 | 0.986 | > 10.2 | 0.154 | 0.108
BT-474 (breast, adherent) | 0.957 | > 10.2 | 0.986 | > 10.2 | – | – | 0.298 | 0.25
Caov-4 (ovary, adherent) | – | – | – | – | 0.932 | > 10.2 | 0.615 | 2.39
H290 (mesothelioma, adherent) | – | – | – | – | 0.989 | > 10.2 | 0.175 | 0.117
HCC202 (breast, adherent) | 0.966 | > 10.2 | 0.879 | > 10.2 | – | – | 0.458 | 0.735
JHU-029 (head and neck, adherent) | – | – | – | – | – | – | 0.077 | < 0.0625
KP-1N (pancreas, adherent) | – | – | – | – | – | – | 0.203 | 0.125
OACp4C (oesophagus, adherent) | 0.9 | > 10.2 | 0.852 | > 10.2 | 0.892 | > 10.2 | – | –
OC-314 (ovary, adherent) | 0.985 | > 10.2 | 0.985 | > 10.2 | 0.975 | > 10.2 | – | –
OV-7 (ovary, adherent) | 0.912 | > 10.2 | 0.945 | > 10.2 | 0.957 | > 10.2 | – | –
OV-17R (ovary, adherent) | 0.967 | > 10.2 | 0.943 | > 10.2 | 0.88 | > 10.2 | – | –
OV-56 (ovary, adherent) | 0.823 | 5.7 | 0.979 | > 10.2 | 0.987 | > 10.2 | – | –
OVCA420 (ovary, adherent) | 0.97 | > 10.2 | 0.963 | > 10.2 | 0.968 | > 10.2 | – | –
OVCA433 (ovary, adherent) | 0.964 | > 10.2 | 0.981 | > 10.2 | 0.974 | > 10.2 | – | –
OVK-18 (ovary, adherent) | 0.684 | 2.22 | 0.932 | > 10.2 | 0.986 | > 10.2 | – | –
PEO1 (ovary, adherent) | 0.981 | > 10.2 | 0.942 | > 10.2 | 0.982 | > 10.2 | – | –
QGP-1 (pancreas, adherent) | 0.861 | > 10.2 | 0.979 | > 10.2 | 0.97 | > 10.2 | – | –
RCC-AB (kidney, adherent) | 0.753 | 4.37 | 0.838 | 10.2 | 0.768 | 5.02 | – | –
RCC-ER (kidney, adherent) | 0.986 | > 10.2 | 0.937 | > 10.2 | 0.979 | > 10.2 | – | –
RCC-FG2 (kidney, adherent) | 0.982 | > 10.2 | 0.745 | 3.99 | 0.979 | > 10.2 | – | –
RCC-JF (kidney, adherent) | 0.809 | 6.16 | 0.918 | > 10.2 | 0.945 | > 10.2 | – | –

Cell Line | AUC [1] | IC50 [1] [µM] | AUC [2] | IC50 [2] [µM] | AUC [3] | IC50 [3] [µM] | AUC [4] | IC50 [4] [µM]
RCC-JW (kidney, adherent) | 0.982 | > 10.2 | 0.96 | > 10.2 | 0.933 | > 10.2 | – | –
RCC-MF (kidney, adherent) | 0.953 | > 10.2 | 0.79 | 6.14 | 0.932 | > 10.2 | – | –
RERF-GC-1B (stomach, adherent) | 0.85 | 9.19 | 0.981 | > 10.2 | 0.931 | > 10.2 | – | –
SCC90 (head and neck, adherent) | – | – | – | – | – | – | 0.454 | 0.711
SK-GT-4 (oesophagus, adherent) | 0.906 | > 10.2 | 0.979 | > 10.2 | 0.974 | > 10.2 | – | –
SK-MEL-5 (melanoma, adherent) | 0.983 | > 10.2 | 0.978 | > 10.2 | 0.972 | > 10.2 | – | –
SK-MG-1 (glioma, adherent) | 0.934 | > 10.2 | 0.984 | > 10.2 | 0.944 | > 10.2 | – | –
SNU-61 (large intestine, adherent) | 0.918 | > 10.2 | 0.983 | > 10.2 | 0.922 | > 10.2 | – | –
SNU-81 (large intestine, adherent) | 0.786 | 6.13 | 0.978 | > 10.2 | 0.948 | > 10.2 | – | –
SNU-175 (large intestine, suspension) | 0.963 | > 10.2 | 0.987 | > 10.2 | 0.873 | 8.82 | – | –
SNU-407 (large intestine, adherent) | 0.789 | 5.38 | 0.916 | > 10.2 | 0.922 | > 10.2 | – | –
SNU-1040 (large intestine, adherent) | 0.822 | 8.92 | 0.967 | > 10.2 | 0.909 | > 10.2 | – | –
SNU-C5 (large intestine, adherent) | 0.964 | > 10.2 | 0.981 | > 10.2 | 0.974 | > 10.2 | – | –
STS-0421 (soft tissue, adherent) | – | – | – | – | – | – | 0.298 | 0.243
SU-DHL-10 (B-cell lymphoma, suspension) | 0.974 | > 10.2 | 0.964 | > 10.2 | 0.998 | > 10.2 | – | –
SW1116 (large intestine, adherent) | 0.986 | > 10.2 | 0.985 | > 10.2 | 0.985 | > 10.2 | – | –
TE-4 (oesophagus, adherent) | 0.987 | > 10.2 | 0.98 | > 10.2 | 0.53 | 0.773 | – | –
THP-1 (acute myeloid leukaemia, suspension) | – | – | 0.863 | 7.43 | 0.876 | 8.4 | 0.138 | 0.0869
UWB1.289 (ovary, adherent) | 0.978 | > 10.2 | 0.949 | > 10.2 | 0.97 | > 10.2 | – | –
YH-13 (glioma, adherent) | 0.986 | > 10.2 | 0.986 | > 10.2 | 0.986 | > 10.2 | – | –
YMB-1-E (breast, adherent) | 0.971 | > 10.2 | 0.976 | > 10.2 | 0.962 | > 10.2 | – | –

Reference: the supplement of paper PMC4967469
